For this assay, the system named is P388 leukemia ip, CD2F1 mice, survival T/C. Briefly: NCI In Vivo Anticancer Drug Screen. Data for tumor model P388 Leukemia (intraperitoneal) in CD2F1 (CDF1) mice. Conditions: endpoint: median survival time, higher = longer survival.
Setting [1] is: dose: 240.0 mg/kg/injection, schedule: Q01DX005 (ip), vehicle: saline with Tween-80.
Setting [2] is: dose: 50.0 mg/kg/injection, schedule: Q01DX009 (ip), vehicle: saline.

The structures appear in SMILES notation. Inconclusive results and toxic doses are left out. A number of entries come with more than one value. Only these are listed. The source may hold further records. The values listed for one entry are repeated measurements across runs, samples, wells, individuals or studies. Marks in square brackets tell the records apart. The letters are not those of the source and start again with each entry.

In the case of `N[C@H](C(=O)O)[C@@H]1CC(Cl)=NO1`, the T/C runs as follows: (dose: 4.0 mg/kg/injection, schedule: Q01DX005 (ip), vehicle: water) 119 % of control and 166 % of control; (dose: 8.0 mg/kg/injection, schedule: Q01DX005 (ip), vehicle: water) 122 % of control and 150 % of control; (dose: 12.0 mg/kg/injection, schedule: Q01DX009 (ip), vehicle: saline) 102 % of control and 191 % of control; (dose: 50.0 mg/kg/injection, schedule: Q01DX005 (ip), vehicle: water) 110 % of control and 179 % of control. Turning to `COC(=O)[C@@]12OC[C@]34[C@H]([C@@H](O)[C@@H]1O)[C@@]1(C)CC(=O)C(O)=C(C)[C@@H]1C[C@H]3OC(=O)[C@H](OC(=O)/C=C(/C)C(C)(C)O)[C@@H]24`, the T/C (dose: 1.0 mg/kg/injection, schedule: Q01DX009 (ip), vehicle: saline + alcohol) was 103 % of control and 154 % of control. `C[CH2][Sn]([CH2]C)([N](c1ccccn1)c1ccccn1)[N](c1ccccn1)c1ccccn1`: the T/C (dose: 12.5 mg/kg/injection, schedule: Q01DX005 (ip), vehicle: Klucel (hydroxypropylcellulose) (HPC)) is 122 % of control and 151 % of control. Take `[Cl][Pt+2][Cl].[NH-]c1cccc(F)c1.[NH-]c1cccc(F)c1`: the T/C (dose: 12.5 mg/kg/injection, schedule: Q01DX009 (ip), vehicle: Klucel (hydroxypropylcellulose) (HPC)) is 120 % of control and 167 % of control. On to `[Cl][Pt+2][Cl].[NH-]C1CCC1.[NH2-]`, for which the T/C (dose: 6.0 mg/kg/injection, schedule: Q01DX005 (ip), vehicle: saline) is recorded as 94 % of control, 154 % of control, 190 % of control. Regarding `Cn1c2nc(=O)n(-c3ccccc3)c(=O)c-2nc2c1CCCC2`, under “dose: 25.0 mg/kg/injection, schedule: Q01DX009 (ip), vehicle: saline with Tween-80”, the T/C is 124 % of control and 171 % of control. Take `Cc1cc(N(CCOS(C)(=O)=O)CCOS(C)(=O)=O)ccc1C=Nc1ccc(-c2nc(Cc3ccccc3)sc2C)cc1`: the T/C (dose: 25.0 mg/kg/injection, schedule: Q01DX009 (ip), vehicle: Klucel (hydroxypropylcellulose) (HPC)) was 119 % of control and 166 % of control. `NC1=NC(=S)C2N=C(N=Nc3ccc(C(=O)NC(CCC(=O)O)C(=O)O)cc3)N=C2N1` (configuration not stated): the T/C (dose: 0.37 mg/kg/injection, schedule: Q01DX009 (ip), vehicle: Klucel (hydroxypropylcellulose) (HPC)) was 117 % of control and 157 % of control.

For the molecule `COc1cc(C2CC(C)(O)Oc3cc4c(cc32)OCO4)cc(OC)c1OC` (configuration not stated), the T/C by setting is: (dose: 120.0 mg/kg/injection, schedule: Q01DX005 (ip), vehicle: saline with Tween-80) 114 % of control and 163 % of control; under setting [1], 89 % of control and 152 % of control. Take `Nc1nc(N)c2cc(Sc3ccc(Cl)cc3)ccc2n1`: the T/C (dose: 100.0 mg/kg/injection, schedule: Q01DX009 (ip), vehicle: saline with Tween-80) was 123 % of control and 155 % of control.

Regarding `CC([NH-])C[NH-].O=S(=O)(O)O.[Pt+2]` (configuration not stated), the T/C (dose: 6.25 mg/kg/injection, schedule: Q04DX002 (ip), vehicle: saline) was 103 % of control [sample A] and 197 % of control [sample B]. For the molecule `Fc1ccc(F)c(C(Nc2nncs2)Nc2nncs2)c1`, the T/C under setting [1] is 117 % of control and 174 % of control.

As to `CCC(=O)OCC(=O)[C@]1(O)Cc2c(O)c3c(c(O)c2[C@@H](OC2CC(N)C(O)C(C)O2)C1)C(=O)c1c(OC)cccc1C3=O` (some centres not stated), the T/C (dose: 4.0 mg/kg/injection, schedule: Q01DX009 (ip), vehicle: saline) is 88 % of control and 157 % of control. For `O=NNc1ccc(Oc2ccccc2)cn1`, the T/C (dose: 12.5 mg/kg/injection, schedule: Q01DX009 (ip), vehicle: saline) is 121 % of control and 184 % of control.

Take `O=NN(CCCl)C(=O)Oc1ccc(OC(=O)N(CCCl)N=O)cc1`: the T/C (dose: 50.0 mg/kg/injection, schedule: Q01DX001 (ip), vehicle: Klucel (hydroxypropylcellulose) (HPC)) was 117 % of control and 150 % of control. Take `CO[C@H]1Nc2c(ccc(C)c2O)C(=O)N2C=C(/C=C/C(N)=O)C[C@@H]12`: where the note is “dose: 0.36 mg/kg/injection, schedule: Q04DX003 (ip), vehicle: saline + alcohol”, the T/C is given as 92 % of control, 159 % of control, 165 % of control. Turning to `Cc1c2ccncc2c(C)c2c1[nH]c1ccccc12`, the T/C (dose: 25.9 mg/kg/injection, schedule: Q04DX002 (ip), vehicle: saline with Tween-80) is 120 % of control and 173 % of control. As to `Oc1ccc(CCl)c2cccnc12`, the T/C under setting [2] is 123 % of control and 150 % of control.

Consider `CCC/C(=N\O)S(=O)(=O)c1ccc(NN=O)nc1`, for which the T/C under setting [2] was 90 % of control and 154 % of control. `CN1CCc2c(c3ccccc3c3ccccc23)C1`: the T/C (dose: 100.0 mg/kg/injection, schedule: Q01DX009 (ip), vehicle: Klucel (hydroxypropylcellulose) (HPC)) is 105 % of control and 168 % of control. As for `Nc1nc(N)c2c(ccc3c2ccn3Cc2cccc([N+](=O)[O-])c2)n1`, the T/C (dose: 12.5 mg/kg/injection, schedule: Q01DX005 (ip), vehicle: saline with Tween-80) is recorded as 97 % of control, 100 % of control, 187 % of control. Take `O=C1C=C(O)C(=O)C(CC2=C(O)C(=O)C=C(O)C2=O)=C1O`: the T/C (dose: 50.0 mg/kg/injection, schedule: Q01DX005 (ip), vehicle: Klucel (hydroxypropylcellulose) (HPC)) is on record as 87 % of control, 96 % of control, 161 % of control.

Take `Nc1[nH]c(=S)[nH]c(=O)c1NS(=O)(=O)c1ccccc1`: the T/C (dose: 60.0 mg/kg/injection, schedule: Q01DX005 (ip), vehicle: Klucel (hydroxypropylcellulose) (HPC)) is on record as 100 % of control, 103 % of control, 150 % of control.

Values taken from PubChem BioAssay AID330 (DTP/NCI, 2004).
